Experimental data as given in EP4635500A1, “THERAPEUTIC AGENT FOR BACTERIAL INFECTION” (Sumitomo Pharma Co., Ltd., priority 2022, dated 2024).
In brackets after ≈: the same amount, converted by molar mass. Where two headings read alike, the source gives them in different places.

Columns and labels:
A. baumannii = test: MIC, broth microdilution, CDC/FDA Antibiotic Resistance Isolate Bank (Example 7, Tables 9, 13, 14); assay type: cell-based, Acinetobacter baumannii
[1] = tested on: Acinetobacter baumannii CDC-277; test: Respiratory (lung) infection model of neutropenic mouse (Example 17, FIG. 3); conditions: 26 hours after infection; MEPM 100 mg/kg + cilastatin 100 mg/kg q3h, 8 doses s.c.
[2] = Acinetobacter baumannii, A. baumannii KUB No. 5530, AR Bank #33, OXA-94, NDM-1, read-out: MIC
[3] = Acinetobacter baumannii, A. baumannii KUB No. 5532, AR Bank #35, OXA-66, OXA-72, read-out: MIC
[4] = Acinetobacter baumannii, A. baumannii KUB No. 5533, AR Bank #36, OXA-24, OXA-65, read-out: MIC
[5] = Acinetobacter baumannii, A. baumannii KUB No. 5542, AR Bank #45, OXA-23, OXA-69, read-out: MIC
[6] = Acinetobacter baumannii, A. baumannii KUB No. 5549, AR Bank #52, OXA-58, OXA-100, read-out: MIC
[7] = Acinetobacter baumannii, A. baumannii KUB No. 5553, AR Bank #56, OXA-23, OXA-66, read-out: MIC
[8] = Acinetobacter baumannii, A. baumannii KUB No. 5560, AR Bank #63, OXA-23, OXA-24, OXA-65, read-out: MIC

Structure (SMILES)	MIC (A. baumannii; [2])	MIC (A. baumannii; [3])	MIC (A. baumannii; [4])	MIC (A. baumannii; [5])	MIC (A. baumannii; [6])	MIC (A. baumannii; [7])	MIC (A. baumannii; [8])	MIC (A. baumannii; A. baumannii KUB No. 5530, AR Bank #33, OXA-94, NDM-1)	MIC (A. baumannii; A. baumannii KUB No. 5532, AR Bank #35, OXA-66, OXA-72)	MIC (A. baumannii; A. baumannii KUB No. 5533, AR Bank #36, OXA-24, OXA-65)	MIC (A. baumannii; A. baumannii KUB No. 5542, AR Bank #45, OXA-23, OXA-69)	MIC (A. baumannii; A. baumannii KUB No. 5549, AR Bank #52, OXA-58, OXA-100)	MIC (A. baumannii; A. baumannii KUB No. 5553, AR Bank #56, OXA-23, OXA-66)	MIC (A. baumannii; A. baumannii KUB No. 5560, AR Bank #63, OXA-23, OXA-24, OXA-65)	increase in the number of bacteria in the lungs compared to the start of treatment [1]
NCC[C@H](O)C(=O)N[C@@H]1C[C@H](N)[C@@H](O[C@H]2O[C@H](CN)[C@@H](O)[C@H](O)[C@H]2O)[C@H](O)[C@H]1O[C@H]1O[C@H](CO)[C@@H](O)[C@H](N)[C@H]1O [Amikacin, amikacin]	2 µg/mL (≈ 3.42 µM)	4 µg/mL (≈ 6.83 µM)	64 µg/mL (≈ 109 µM)	2 µg/mL (≈ 3.42 µM)	0.5 µg/mL (≈ 0.854 µM)	2 µg/mL (≈ 3.42 µM)	16 µg/mL (≈ 27.3 µM)								
CC(C)(O/N=C(\C(=O)N[C@@H]1C(=O)N2C(C(=O)[O-])=C(C[N+]3(CCNC(=O)c4ccc(O)c(O)c4Cl)CCCC3)CS[C@H]12)c1csc(N)n1)C(=O)O [Cefiderocol, cefiderocol]	2 µg/mL (≈ 2.66 µM)	0.12 µg/mL (≈ 0.16 µM)	0.5 µg/mL (≈ 0.665 µM)	0.5 µg/mL (≈ 0.665 µM)	≤ 0.06 µg/mL	0.25 µg/mL (≈ 0.332 µM)	2 µg/mL (≈ 2.66 µM)								
CO/N=C(\C(=O)N[C@@H]1C(=O)N2C(C(=O)[O-])=C(C[n+]3ccn4ncccc43)CS[C@H]12)c1nsc(N)n1 [Cefozopran, cefozopran]	> 64 µg/mL	64 µg/mL (≈ 124 µM)	32 µg/mL (≈ 62.1 µM)	64 µg/mL (≈ 124 µM)	2 µg/mL (≈ 3.88 µM)	> 64 µg/mL	> 64 µg/mL								
C[C@H]1COc2c(N3CCN(C)CC3)c(F)cc3c(=O)c(C(=O)O)cn1c23 [Levotloxacin]								8 µg/mL (≈ 22.1 µM)	16 µg/mL (≈ 44.3 µM)	64 µg/mL (≈ 177 µM)	8 µg/mL (≈ 22.1 µM)	4 µg/mL (≈ 11.1 µM)	16 µg/mL (≈ 44.3 µM)	16 µg/mL (≈ 44.3 µM)	
C[C@@H](O)[C@H]1C(=O)N2C(C(=O)O)=C(S[C@@H]3CN[C@H](C(=O)N(C)C)C3)[C@H](C)[C@H]12 [MEPM, meropenem]															0.1 logs
